From PMC4336329 (PLoS ONE, 2015)
Hit rate of the full screen: of about 310,000 compounds, about 2,200 (0.71%) showed an effect of 50% or more. The effect is printed as a negative number. Some of the results follow.

Biological target: human ether-à-go-go-related gene (hERG) potassium channel (human, UniProt Q12809)
Test: primary screen, population patch clamp on CHO cells stably expressing hERG

Chain of human ether-à-go-go-related gene (hERG) potassium channel (Q12809 whole entry, looked up): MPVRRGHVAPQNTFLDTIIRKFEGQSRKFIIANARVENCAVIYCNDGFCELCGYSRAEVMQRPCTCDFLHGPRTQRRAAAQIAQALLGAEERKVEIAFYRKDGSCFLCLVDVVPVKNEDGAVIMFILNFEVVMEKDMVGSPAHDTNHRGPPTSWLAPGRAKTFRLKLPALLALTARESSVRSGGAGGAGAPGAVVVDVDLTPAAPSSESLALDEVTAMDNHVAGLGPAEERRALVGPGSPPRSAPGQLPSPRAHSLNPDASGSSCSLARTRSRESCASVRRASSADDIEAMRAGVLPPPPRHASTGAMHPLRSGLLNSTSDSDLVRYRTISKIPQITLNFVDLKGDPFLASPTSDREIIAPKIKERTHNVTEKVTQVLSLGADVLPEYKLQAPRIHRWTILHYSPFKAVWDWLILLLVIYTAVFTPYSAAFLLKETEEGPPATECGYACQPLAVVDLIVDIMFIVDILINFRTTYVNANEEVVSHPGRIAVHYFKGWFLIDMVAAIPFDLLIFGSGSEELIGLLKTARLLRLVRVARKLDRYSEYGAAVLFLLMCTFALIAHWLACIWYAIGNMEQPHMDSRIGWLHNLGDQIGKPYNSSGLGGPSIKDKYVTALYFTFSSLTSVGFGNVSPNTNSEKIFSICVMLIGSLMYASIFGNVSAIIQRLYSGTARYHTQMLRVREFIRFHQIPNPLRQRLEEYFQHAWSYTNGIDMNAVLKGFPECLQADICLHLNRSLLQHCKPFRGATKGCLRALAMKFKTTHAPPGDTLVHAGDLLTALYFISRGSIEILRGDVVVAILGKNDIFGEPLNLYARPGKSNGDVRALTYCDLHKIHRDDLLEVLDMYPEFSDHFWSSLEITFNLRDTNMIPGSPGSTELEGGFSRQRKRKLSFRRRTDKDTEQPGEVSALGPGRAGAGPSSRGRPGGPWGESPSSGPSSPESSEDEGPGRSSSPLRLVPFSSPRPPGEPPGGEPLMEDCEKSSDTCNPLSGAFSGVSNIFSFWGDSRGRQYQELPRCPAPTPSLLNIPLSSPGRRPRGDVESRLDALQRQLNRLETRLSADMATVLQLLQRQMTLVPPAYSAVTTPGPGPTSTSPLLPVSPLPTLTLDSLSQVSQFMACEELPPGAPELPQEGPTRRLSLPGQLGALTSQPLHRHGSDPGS

SMILES | hERG current change (%, negative = inhibition) at 1uM [%]
Cn1c(=O)c2c(nc(SCC(=O)NCc3ccc4c(c3)OCO4)n2Cc2ccc(Cl)cc2)n(C)c1=O | -6.76
Cc1ccnc(N2C3CCC2CC(O)(c2ccccc2)C3)n1 (stereo not shown) | 15.6
Cc1cc(C)n2nc(C(=O)Nc3ccc4c(c3)OCCO4)nc2n1 | 13.3
CC(C)C(=O)Nc1nnc(S(=O)(=O)N2CCCCCC2)s1 | 19.5
CCOc1cc2[nH]c(=S)n(CCCOC)c(=O)c2cc1OCC | -15.1
COc1cccc(Nc2cc(C)c3ccccc3n2)c1 | 11.1
Cc1cc(C)n(-c2ccc(S(=O)(=O)N3CCOCC3)cc2[N+](=O)[O-])n1 | -3.05
O=c1c2oc3ccccc3c2[nH]c(=S)n1-c1ccccc1 | 12.8
CSc1ccccc1NC(=S)Nc1ccc(S(N)(=O)=O)cc1 | 22
CCC(CC)c1nnc(NC(=O)CCc2ccc(OC)cc2)s1 | 11.9
CCCCCCCC/C=C\CCCCCCCC(=O)NCCc1ccc(O)c(O)c1 | 12.8
COC(=O)c1[nH]c(C)c(/C(O)=C2\C(=O)C(=O)N(CCN3CCOCC3)C2c2cccnc2)c1C (stereo not shown) | -5.77
O=C(Nc1ccccc1)c1cccc(NC(=O)c2ccco2)c1 | 12.7
COc1ccc(/C=N/NC(=O)c2cc(=O)[nH]c3ccccc23)cc1OC | 9.86
CCOc1ccc(S(=O)(=O)Nc2ccc(C(=O)NCCCN3CCOCC3)cc2)cc1 | -4.89
COC(=O)c1ccc(N2Cc3ccccc3/C2=N\C(=O)Nc2ccccc2)cc1 | 10.8
COC(=O)C1=C(c2ccccc2OCc2ccccc2)C[C@@H]2CC[C@H]1N2C(=O)NCCOc1ccc(OC)cc1 | 15.4
COc1ccc(NC(=O)c2sc3cc(C(F)(F)F)cnc3c2-c2cccs2)cc1 | -6.02
CCc1ccc(-c2csc(NC(=O)C3=COCCO3)n2)cc1 | 11.6
Cc1cc2oc(C(=O)N(Cc3ccc(N(C)C)cc3)CC3CCCO3)c(C)c2cc1C (stereo not shown) | 11.6
COc1cc(/C=C/C(=O)OCC(=O)NCc2ccccc2OC)ccc1O | 9.6
Cn1c(=O)c2sccc2n(CC(=O)NCCC2=CCCCC2)c1=O | 9.89

SMILES | hERG current change (%, negative = inhibition) at 1uM [%]
CCOC(=O)C(C(=O)OCC)[C@@H]1CS(=O)(=O)C[C@H]1C(C(=O)OCC)C(=O)OCC | 4.59
COC(=O)c1ccc(C2C(C(=O)c3cc4ccccc4o3)=C(O)C(=O)N2CCN2CCOCC2)cc1 (stereo not shown) | 26.7
CC(=O)c1cc(F)c(N2CCCCCC2)cc1C | 14.9
O=C(N/N=C/C(Br)=C/c1ccccc1)c1ccncc1 | 8.43
Cc1ccc(-c2nnc(Nc3ccc(CC(N)=O)cc3)c3ccccc23)cc1 | 1.45
CCc1nnc2c3cnn(-c4ccccc4)c3ncn12 | 12.2
CC(C)N(CCCNC(=O)Cn1c(=O)c2cccn2c2ccc(F)cc21)Cc1ccccc1 | -3.05
Cc1cc(C)nc(Nc2n[nH]c(-c3ccccc3N)n2)n1 | 12.4
COC(=O)c1sc(NC(=O)c2cnccn2)c(C(=O)OC)c1C | 9.32
O=C(Nc1ccccc1Cl)C1CCCN(S(=O)(=O)c2cccc3cccnc23)C1 (stereo not shown) | 17.3
CC(C)CC(NC(=O)C1CCCCC1)C(=O)NC(C)c1ccccc1 (stereo not shown) | 9.89
C=CCSc1nc2c(cc1C#N)CCC2 | 2.93
Cc1c(C)n(C)c2ccc(C(=O)NCCCN3CCOCC3)cc12 | 13
CC/C([O-])=N\S(=O)(=O)c1ccc(N=NN(C)C)cc1.[K+] | 4.59
O=C(Nc1ccc(Cl)cc1)N1CCCC(Cn2cccc2)C1 (stereo not shown) | 13.6
CC12CCC(c3c(C(=O)O)nn(-c4ccccc4)c31)C2(C)C (stereo not shown) | 13.4
CCN1CCN(c2c(S(=O)(=O)c3ccc(C)c(C)c3)cnc3ccc(F)cc23)CC1 | -1.65
CCc1ccc(NC(=O)/C(C#N)=C/c2cn(CC(=O)O)c3ccccc23)cc1 | 19.8
Cc1ccc(NC(=O)O/N=C/c2cccc([N+](=O)[O-])c2)cc1 | 2.47
CC(=O)Nc1ccc(OC(F)(F)C(F)F)c(NC(C)=O)c1 | 14.3
Cc1ccn2c(Nc3ccc4c(c3)OCO4)c(-c3ccccn3)nc2c1 | -11.4
O=C(CCNC(=O)c1ccco1)Nc1ccc(C(F)(F)F)cc1 | 25

SMILES | hERG current change (%, negative = inhibition) at 1uM [%]
O=C(COc1ccccc1)Nc1sc2c(c1C(=O)NCc1cccnc1)CCCC2 | 1.12
COc1ccc(CCNC(=O)COc2ncnc3cc([N+](=O)[O-])ccc23)cc1 | 11
CC(C)Oc1ccc(C(=O)NC(=S)Nc2ccc(CN3CCOCC3)cc2)cc1 | 7.56
O=C(Nc1ccc(F)c(Cl)c1)C1CCN(c2ncnc3c2nc2n3CCCCC2)CC1 | -3.97
O=[N+]([O-])c1cc(C(F)(F)F)ccc1N/N=C/c1cc2ccccc2nc1Cl | 14.1
CCOC(=O)C1=C(N)OC2=C(C(=O)CCC2)[C@]12C(=O)N(CC(N)=O)c1ccccc12 | 18.3
COc1ccc(OCc2cc(C(=O)NC(C)Cc3cnccn3)no2)c(Cl)c1 (stereo not shown) | 16.8
CCOC(=O)c1sc(N(Cc2ccccc2)C(=O)CCl)nc1C | -5.15
CCOC(=O)CN(C(=O)CNC(=O)c1cccs1)C(C(=O)NC1CCCC1)c1ccncc1 (stereo not shown) | 22.1
CSc1ccccc1C(=O)NC1CCCC1 | 17.9
COc1ccc(CC2(CO)CCN(S(=O)(=O)c3sccc3C)CC2)cc1 | 10
O=C(CN1C(=O)/C(=C2\SC(=S)N(C3CCS(=O)(=O)C3)C2=O)c2ccccc21)Nc1ccc(F)cc1 (stereo not shown) | 17
Nc1cc(Br)c(N)c(Br)c1 | -0.168
O=C(Nc1ncc2c(n1)CC(c1ccccc1)CC2=O)c1ccco1 (stereo not shown) | -5.59
CCN(CC(=O)Nc1ccc(NC(C)=O)cc1)C(=O)c1cc(C)on1 | 15.6
COCCn1c(SCC(=O)c2ccc(CNC(C)=O)o2)nc2ccccc2c1=O | 5.38
O=C(NC1CCCC1)c1nc2c(nnn2Cc2cccc(Cl)c2)c(=O)[nH]1 | 6.2
COc1ccc(CN(C(=O)c2ccc(C)cc2)C2CCS(=O)(=O)C2)cc1 (stereo not shown) | 11.3
Cc1ccc(S(=O)(=O)Cn2nnnc2C(c2ccccc2)N2CCN(c3ccccc3)CC2)cc1 (stereo not shown) | 14.3
COc1cc(/C=N/NC(=O)c2ccc3c(c2)OCCO3)cc(Cl)c1O | 0.0139
COC(=O)c1cc2occc2n1CC(=O)N(C)C1CCCCC1 | 5.68
CC(=O)N1NC(=Nc2ccccc2)SC1(C)C | 9.6

SMILES | hERG current change (%, negative = inhibition) at 1uM [%]
Cc1cccc(CSCCNC(=O)COc2ccc(Cl)cc2)c1 | 2.34
O=C(c1cccnc1)c1cc2ccccc2[nH]1 | 11.3
CC(=O)Nc1cc(C(=O)NCc2ccco2)ccc1Sc1ccc(C)cc1 | 2.87
CCc1ccccc1NC(=O)CSc1nnc(-c2cc(C)[nH]n2)n1N | -10.7
O=c1c2ccccc2nc(-c2ccc(Cl)cc2Cl)n1-c1ccncc1 | 9.24
COc1ccc(-n2c(C)c([N+](=O)[O-])c3ccc(O)c(CN4CCCCC4)c32)cc1.Cl | 10.9
O=C(Nc1ccc(F)cc1)C1CCCO1 (stereo not shown) | 13.5
Cc1ccc(C(C)C)c(OCCNC(=S)Nc2cccc3ccccc23)c1 | 11.4
CSc1ccc(/C=C(\C#N)C(=O)NC2CCCCC2)cc1 | 4.17
CC1CC(=O)c2cnc(Nc3ccccc3)nc2C1 (stereo not shown) | -8.21
CCCCC1(CC(=O)OC)C(=O)N(c2ccccc2)N(c2ccccc2)C1=O | 16
O=C(CCCN1C(=O)c2ccccc2C1=O)NCc1cccnc1 | -8.54
CCCCN(C(=N)N1CCCCC1)c1nc(C)c([N+](=O)[O-])c(=O)[nH]1 | 7.49
C/C(=N\OC(=O)C1CC1)C1CC1c1ccc(F)cc1 (stereo not shown) | 0.718
Cc1cc(C(=O)CN2C(=O)c3cccc(N)c3C2=O)c(C)n1Cc1cccs1 | 11.5
CCOC(=O)c1cc2occc2n1CC(=O)NC1CCCCC1C (stereo not shown) | 15.4
COc1ccc(Cn2c(C)nc([N+](=O)[O-])c2SCC(=O)O)cc1[N+](=O)[O-] | 16.8
Cc1[nH]n(-c2ccccc2)c(=O)c1N=Nc1ccc2c(c1)OCCO2 | 10.9
CCOC(=O)C(CCc1nnc(N)s1)C(=O)OCC | -21
O=C(Nc1ccc(Cl)cc1)Nc1nc(-c2ccccc2O)cs1 | 13.2
C[C@H](NC(=O)[C@H]1N2C(=O)c3ccccc3C2SC1(C)C)C(=O)N1CCC[C@H]1C(=O)O (stereo partly shown) | 12
Cc1c(C(N)=O)sc2ncn(CC(=O)OC(C)C)c(=O)c12 | 14.6
